According to PubChem BioAssay AID504332 (National Center for Advancing Translational Sciences (NCATS), 2011):
Where “and” joins values, the source holds several entries; their conditions need not be identical. Equal values may be shown once. The campaign covered roughly 350,000 compounds. About 31,000 (8.9%) were called active. Inconclusive means that the source gave no clear call. Such entries were picked first, then a sample of the others. Calls come from the whole dose curve; as a rule, active = well fitted inhibition curve with a large enough effect; inconclusive = small, poorly fitted or top-dose-only effect; inactive = no such curve, though single readings can be large or run the other way. Where the call is inconclusive, the potency comes from a doubtful curve fit.

Each compound was assayed against Histone-lysine N-methyltransferase EHMT2 (Homo sapiens) (UniProt Q96KQ7) (assay: qHTS Assay for Inhibitors of Histone Lysine Methyltransferase G9a). Settings: G9a H3K9 monomethylation, AlphaScreen, 2 h; activity, negative = inhibition: at 59 µM (top of the series) unless noted.
Sequence of UniProt Q96KQ7 (Q96KQ7 whole entry, looked up): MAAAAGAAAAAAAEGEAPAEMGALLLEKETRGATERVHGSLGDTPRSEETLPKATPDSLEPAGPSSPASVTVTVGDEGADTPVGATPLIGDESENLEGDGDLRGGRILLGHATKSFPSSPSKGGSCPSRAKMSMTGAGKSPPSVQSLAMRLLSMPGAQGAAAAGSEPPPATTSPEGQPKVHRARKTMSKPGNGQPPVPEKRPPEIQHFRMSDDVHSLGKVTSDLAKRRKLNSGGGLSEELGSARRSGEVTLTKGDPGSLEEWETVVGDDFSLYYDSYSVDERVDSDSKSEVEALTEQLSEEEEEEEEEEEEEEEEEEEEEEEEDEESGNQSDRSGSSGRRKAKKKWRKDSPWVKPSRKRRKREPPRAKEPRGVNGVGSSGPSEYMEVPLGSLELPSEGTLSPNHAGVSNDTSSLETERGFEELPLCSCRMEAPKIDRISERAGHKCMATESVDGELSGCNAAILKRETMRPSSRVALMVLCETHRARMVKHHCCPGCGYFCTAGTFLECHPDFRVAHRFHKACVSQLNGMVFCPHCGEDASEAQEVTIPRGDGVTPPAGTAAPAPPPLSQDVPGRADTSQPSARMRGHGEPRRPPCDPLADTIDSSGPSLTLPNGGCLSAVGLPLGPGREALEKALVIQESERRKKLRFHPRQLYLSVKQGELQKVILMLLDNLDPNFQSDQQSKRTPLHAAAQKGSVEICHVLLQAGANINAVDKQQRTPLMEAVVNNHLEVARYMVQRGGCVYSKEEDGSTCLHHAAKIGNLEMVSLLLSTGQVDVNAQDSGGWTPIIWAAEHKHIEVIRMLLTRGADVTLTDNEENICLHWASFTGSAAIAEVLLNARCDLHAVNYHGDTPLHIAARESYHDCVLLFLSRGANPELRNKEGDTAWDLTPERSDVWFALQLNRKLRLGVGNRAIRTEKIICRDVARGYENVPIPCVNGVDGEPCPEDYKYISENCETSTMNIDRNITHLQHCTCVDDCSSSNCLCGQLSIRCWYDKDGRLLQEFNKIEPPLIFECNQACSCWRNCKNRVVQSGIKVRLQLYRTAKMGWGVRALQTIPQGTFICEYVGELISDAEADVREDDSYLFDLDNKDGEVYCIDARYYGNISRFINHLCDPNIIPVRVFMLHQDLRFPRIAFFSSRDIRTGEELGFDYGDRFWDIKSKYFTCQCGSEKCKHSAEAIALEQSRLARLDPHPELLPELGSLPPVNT
Summary of the method: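 Enzyme 20 nM + cpd, 15 min RT; add b-H3K9 pep 500 nM / SAM 20 uM; 2 h RT; anti-H3K9me1 Ab 0.5 ug/mL + SA donor / anti-rabbit acceptor beads 20 ug/mL each, 10 min; AlphaScreen read.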
% is set by controls: 0 for no effect and ±100 for the full control effect; potency is the fitted concentration of half-maximal effect; tags give direction and shape of the fitted curve.
Note: nearly all actives have a fitted effect of over 75% in size.

| Structure (SMILES) | Potency | activity, negative = inhibition |
| --- | --- | --- |
| CC1(C)CC(=O)C(C=Nc2ccc(C(=O)c3ccccc3)cc2N=CC2=C(O)CC(C)(C)CC2=O)=C(O)C1 | active: 39.8 µM |  |
| CC(C)(CNC(=O)CCNC(=O)c1ccc(Br)cc1)N1CCOCC1 |  | inactive: -20.8% [at 102 µM] |
| Cc1nn2c(=O)cc(COC(=O)COc3ccc(F)cc3)nc2s1 |  | inactive: 10.4% |
| O=c1c2sccc2[nH]c(=S)n1-c1ccccc1 | inconclusive: 25.1 µM [inhibitor, single point] |  |
| Cc1ccc(-n2nc(-c3ccccc3)cc2Nc2ccccc2N)cc1 | inconclusive: 25.1 µM [inhibitor, single point] |  |
| COc1ccc(C(C)NC(=S)NC2CCCC2)cc1OC (configuration not stated) | active: 17.8 µM |  |
| Cc1ccccc1S(=O)(=O)Cc1ccc(C(=O)N2CCN(c3cccc(Cl)c3)CC2)o1 |  | inactive: -34.6% |
| CCS(=O)(=O)N1Cc2ccccc2CC1C(=O)N(C)CC(=O)Nc1ccc(F)c(F)c1F (configuration not stated) | inconclusive: 89.1 µM [inhibitor, single point] |  |
| CCCN1CCC(NC(=S)Nc2ccc(OC)c(OC)c2)CC1 | active: 50.1 µM |  |
| O=C(NC1CC1)c1sc2cc([N+](=O)[O-])ccc2c1Cl |  | inactive: -3.57% [at 102 µM] |
| COc1ccccc1C1c2c(-c3ccc(Cl)cc3)n[nH]c2C(=O)N1c1ccc(C)cc1 (configuration not stated) | inconclusive: 28.2 µM [inhibitor, partial curve, poor fit] |  |
| CCN(CC)CCOC(=O)c1ccc(NC(=O)c2cc3c(=O)n(CC)c4ccccc4c3s2)cc1 | inconclusive: 17.8 µM [inhibitor, partial curve, poor fit] |  |
| CN(CC(=O)Nc1ccc(F)cc1)C(=O)CCc1nc2sc3c(c2c(=O)[nH]1)CCCC3 | active: 56.2 µM |  |
| COc1ccc(C(=O)Nc2nc(CC(=O)NCCc3ccccc3OC)cs2)cc1 |  | inactive: -27.5% [at 102 µM] |
| Clc1ccccc1Cn1nnc2ccccc21 | inconclusive: 0.891 µM [inhibitor, single point] |  |
| O=C(O)/C=C/C(=O)Nc1ccc(SC(F)(F)F)cc1 | inconclusive: 56.2 µM [inhibitor, partial curve, poor fit] |  |
| CCOC(=O)c1c(C)n(CC(COC(C)=O)OC(C)=O)c2ccc(OC(C)=O)cc12 (configuration not stated) | inconclusive: 0.355 µM [inhibitor, partial curve, poor fit] |  |
| Cc1cnc(C(=O)OCC(=O)Nc2ccc(C)c(S(=O)(=O)N(C)C)c2)cn1 | inconclusive: 56.2 µM [inhibitor, partial curve] |  |
| CCOC(=O)c1sc(NS(=O)(=O)c2ccccc2Cl)nc1C | inconclusive: 15.8 µM [inhibitor, partial curve, poor fit] |  |
| Cc1ccc(C)c(NC(=O)CN2CCSc3ccc(S(=O)(=O)N4CCCC4)cc32)c1 | inconclusive: 15.8 µM [inhibitor, partial curve] |  |
| CC(C)CCNC(=O)CN(C)S(=O)(=O)c1cccc2nsnc12 | inconclusive: 70.8 µM [inhibitor, single point] |  |
| CCOC(=O)/C(C#N)=C/c1c(Oc2cc(C)cc(C)c2)nc2ccccn2c1=O |  | inactive: -42.2% |
| O=C(CN1C(=O)COc2ccccc21)NCCCN1CCc2ccccc2C1 |  | inconclusive: -60.7% [inhibitor] |
| CC(C)=NNc1nc2sc3c(c2c(=O)[nH]1)CC(C)(C)OC3 | inconclusive: 3.16 µM [inhibitor, single point] |  |

| Structure (SMILES) | Potency | activity, negative = inhibition |
| --- | --- | --- |
| Cc1ccccc1OCCn1cc(C(=S)N2CCN(C)CC2)c2ccccc21 | active: 39.8 µM |  |
| CCCN(Cc1ccccc1)C(=S)Nc1cccc(C(F)(F)F)c1 |  | inactive: 18.6% |
| CCOCCn1ccc2c(OCC(=O)Nc3ccc(C(N)=O)cc3)cccc2c1=O |  | inactive: 10.4% |
| CCOC(=O)N1CCC(Nc2c(-c3ccc(C)cc3)c(=O)c2=O)CC1 |  | inconclusive: -75.6% [inhibitor] |
| CCCCCOc1ccc(/C(C)=N/NC2=NCCN2)cc1 |  | inactive: 8.24% [at 102 µM] |
| CCN(CC)CCC(c1cc(OC)c(OC)c(OC)c1)c1c(OC)cc(OC)c2c(C)cc(=O)oc12 (configuration not stated) |  | inactive: 16.7% |
| CCNc1ncc2ncc(=O)n(C3CC3)c2n1 |  | inactive: 15.6% [at 0.501 µM] |
| O=C(CSc1ccccc1)OCC(=O)N1CCN(C(=O)c2ccco2)CC1 |  | inactive: 21.6% [at 12.7 µM] |
| CCOCCCNC(=O)CN1CCN(c2ccc(F)cc2)CC1 | active: 11.2 µM |  |
| Cc1ccc(-c2nc(CS(=O)CC(=O)NCc3ccc(Cl)cc3)c(C)o2)cc1 (configuration not stated) | inconclusive: 89.1 µM [inhibitor, single point] |  |
| CN1CCc2cc(O)c(O)cc2C(c2ccccc2)C1 (configuration not stated) | active: 10 µM and active: 14.1 µM and active: 10.6 µM |  |
| Cc1ccsc1/C=N/n1c(C2CCCCC2)n[nH]c1=S | active: 1.41 µM |  |
| CCN(C(=O)COC(=O)C1=COCCO1)c1c(N)n(Cc2ccccc2)c(=O)[nH]c1=O | inconclusive: 70.8 µM [inhibitor, partial curve, poor fit] |  |
| COc1ccc2[nH]c(C)c(-c3csc(N)n3)c2c1 | inconclusive: 63.1 µM [inhibitor, single point] |  |
| CN(C(=O)CSc1nnc(C(F)(F)F)n1N)C1CCS(=O)(=O)C1 (configuration not stated) |  | inactive: 45.8% [at 12.7 µM] |
| Cc1cc(S(=O)(=O)N2CCN(Cc3noc(CCC(=O)N4CCCCC4)n3)CC2)ccc1F | inconclusive: 3.55 µM [inhibitor, partial curve, poor fit] |  |
| COc1ccccc1/C=C/C(=O)NCC(=O)N/N=C(/C)c1ccc(Cl)cc1 |  | inactive: 20.3% [at 102 µM] |
| COC(=O)c1sc(NC(=O)c2cc(C)on2)nc1C | inconclusive: 89.1 µM [inhibitor, single point] |  |
| COc1ccc2cc(C(=O)N3CCN(c4ccccc4OC)CC3)[nH]c2c1 | inconclusive: 79.4 µM [inhibitor, single point] |  |
| CN(C)c1ccc(CNC(=O)C2CCN(c3nc4ccccc4[nH]3)CC2)cc1 | active: 15.8 µM |  |
| CCn1c(CCC(=O)Nc2cc(F)ccc2C)nc2cc(S(=O)(=O)N(C)C)ccc21 | inconclusive: 5.62 µM [inhibitor, single point] |  |
| CS(=O)(=O)N1CCN(c2ccccc2NC(=O)c2ccc(Br)o2)CC1 |  | inactive: -34.3% [at 102 µM] |
| O=C(NC1CCCCC1)C1CC(=O)N(c2cccc([N+](=O)[O-])c2)C1 (configuration not stated) | inconclusive: 50.1 µM [inhibitor, partial curve] |  |
| CC(CSc1nnnn1-c1ccccc1)Cn1c(N2CCN(C)CC2)nc2c1c(=O)[nH]c(=O)n2C (configuration not stated) | inconclusive: 28.2 µM [inhibitor, partial curve, poor fit] |  |

| Structure (SMILES) | Potency | activity, negative = inhibition |
| --- | --- | --- |
| Clc1ccccc1Cn1nnc2c(NCC3CC3)ncnc21 | inconclusive: 0.282 µM [inhibitor, partial curve, poor fit] |  |
| CCc1ccc(-n2cc(-c3ccc([N+](=O)[O-])cc3)[nH]c2=S)cc1 | inconclusive: 3.55 µM [inhibitor, full curve, poor fit] |  |
| CC(=O)c1ccc(OCCCC(=O)Nc2cc(S(=O)(=O)N3CCCCC3)ccc2C)cc1 | active: 35.5 µM |  |
| Cc1cc(NC(=O)c2ccco2)ccc1NC(=O)c1ccco1 |  | inactive: 4.18% [at 102 µM] |
| CCOc1ccc2[nH]c(O)c(NC(C)=O)c2c1 |  | inconclusive: -70.1% [inhibitor] |
| COc1ccc(-c2ocnc2C(=O)N2CCN(C(=O)C(c3ccccc3)c3ccccc3)CC2)cc1 | active: 50.1 µM |  |
| O=C(Nc1ccc(Cl)cc1)Nc1ccccc1NS(=O)(=O)c1cccs1 |  | inactive: 0.718% |
| Cc1ccccc1NC(=O)/C(=C/c1ccccc1)c1ccccc1 |  | inactive: 57.7% [at 12.7 µM] |
| COc1cc2c(cc1OC)C(C(C)C)=NC(C)(C)C2 | inconclusive: 31.6 µM [inhibitor, single point] |  |
| COc1cc2nc(NCCCN3CCN(C)CC3)n3nc(-c4ccccc4)nc3c2cc1OC | inconclusive: 39.8 µM [inhibitor, partial curve, poor fit] |  |
| O=C(C1CCC(CNS(=O)(=O)c2cccc3nsnc23)CC1)N1CCN(c2ccccn2)CC1 (configuration not stated) |  | inactive: -28.2% [at 102 µM] |
| CCCCCCCC(=O)NNC(=O)Cc1ccccc1 |  | inactive: -0.499% [at 0.0925 µM] |
| CCCCOc1cccc(C2C(C(=O)c3cccs3)=C(O)C(=O)N2Cc2cccnc2)c1 (configuration not stated) | inconclusive: 25.1 µM [inhibitor, single point] |  |
| CCC(CNc1cc(OC)cc2cccnc12)NC1CCCCC1 (configuration not stated) | active: 5.01 µM |  |
| CC(=O)Nc1ccc2nc(-c3ccc(Br)o3)[nH]c2c1 | inconclusive: 10 µM [inhibitor, partial curve, poor fit] |  |
| Cc1nc(C)c(C(=O)C2=C(O)C(=O)N(CCN3CCOCC3)C2c2cccs2)s1 (configuration not stated) | inconclusive: 35.5 µM [inhibitor, single point] |  |
| Cc1ccccc1COC(=O)c1cc([N+](=O)[O-])ccc1N1CCOCC1 | inconclusive: 6.31 µM [inhibitor, full curve] |  |
| O=C(CSc1cn(CC(=O)N2CCCC2)c2ccccc12)Nc1ccc(Cl)cc1 |  | inactive: -24% |
| Cc1cc(CNC(=O)c2cccc(OC3CCN(S(=O)(=O)N(C)C)CC3)c2)on1 |  | inactive: 16.3% [at 102 µM] |
| CCN1CCN(C(=O)CN(CC)S(=O)(=O)c2ccc(F)cc2)CC1 |  | inactive: 16.8% [at 102 µM] |
| COc1ccc(CNc2nc(-c3ccco3)nn2S(=O)(=O)c2ccc(Cl)cc2)cc1OC | inconclusive: 28.2 µM [inhibitor, single point] |  |
| N#Cc1nc(-c2ccccc2)oc1N1CCC(C(N)=O)CC1 |  | inactive: -2.24% [at 102 µM] |
| COc1ccc(-n2c(SCC(=O)Nc3ccc(C(=O)O)cc3)nnc2-c2cccs2)cc1 | inconclusive: 20 µM [inhibitor, single point] |  |
| COc1ccc(N2CC(NS(=O)(=O)c3cccnc3)CC2=O)cc1OC (configuration not stated) | inconclusive: 89.1 µM [inhibitor, single point] |  |
